Reference: PubChem BioAssay AID485281 (National Center for Advancing Translational Sciences (NCATS), 2010)
Several values for one entry are separate records, joined by “and”; a condition that tells them apart may be missing. Equal entries are not always repeated. Screen size: about 350,000 compounds; about 260 (0.074%) were called active. The inconclusive results got no clear call from the source; some entries with a clear call stand among them for comparison. Calls follow the shape of the dose curve; as a rule, active = well fitted inhibition curve with a large enough effect; inconclusive = small, poorly fitted or top-dose-only effect; inactive = no such curve, though single readings can be large or run the other way. Potencies beside an inconclusive call are fits to weak or partial responses and may not hold up.

molecular target: Ferritin light chain (Equus caballus) (UniProt P02791); assay: qHTS Assay for Identification of Novel General Anesthetics; settings: apoferritin/1-aminoanthracene competitive binding, fluorescence; activity change, negative = displacement: at 77.5 µM (top of the series); also: nearly all actives have a fitted effect of over 20% in size
In short: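 Horse-spleen apoferritin (10 uM) in 50% saturated 1-aminoanthracene in PBS was incubated 10 min at room temperature with compound. Fluorescence (ex 380, em 535 nm) was normalized to free and bound 1-AMA, with concentration-response fitted by a four-parameter Hill equation.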
% is scaled to controls: 0 for no effect and ±100 for the full control effect; potency is read from the fitted curve at half-maximal effect; tags tell the direction and shape of the fitted curve.

Chain of UniProt P02791 (P02791 whole entry, looked up): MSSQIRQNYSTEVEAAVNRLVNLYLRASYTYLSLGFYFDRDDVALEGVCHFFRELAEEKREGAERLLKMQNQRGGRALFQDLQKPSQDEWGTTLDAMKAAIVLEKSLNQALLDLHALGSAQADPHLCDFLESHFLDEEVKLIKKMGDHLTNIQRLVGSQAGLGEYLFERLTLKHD

| SMILES | activity change, negative = displacement | Potency |
| --- | --- | --- |
| CC(=O)N1c2ccc(S(=O)(=O)N3CCN(c4cc(Cl)ccc4C)CC3)cc2CC1C (centres undefined) | inactive: 6.79% | – |
| O=C(CSCc1ccco1)N1CCc2ccccc21 | – | inconclusive: 56.2 µM [inhibitor, single point] |
| COc1cc(CNCCNC(=O)c2nonc2N)ccc1OCc1ccc(Cl)cc1 | – | active: 12.6 µM |
| O=C(c1ccc(Cl)cc1)C(CN1CCCC1)c1ccccc1 (centres undefined) | – | inconclusive: 44.7 µM [inhibitor, single point] |
| CCC(C)NC(=O)CSc1nnc(-c2cc(-c3ccc(C)cc3)nc3ccccc23)n1N (centres undefined) | – | inconclusive: 39.8 µM [inhibitor, partial curve] |
| CCc1ccc(N2CC(C(=O)N/N=C/c3ccccc3OC)CC2=O)cc1 (centres undefined) | – | inconclusive: 50.1 µM [inhibitor, single point] |
| CC(OC(=O)CNC(=O)C12CC3CC(CC(C3)C1)C2)C(=O)Nc1ccc(S(N)(=O)=O)cc1 (centres undefined) | – | inconclusive: 20 µM [inhibitor, partial curve] |
| CC(CCc1ccco1)NC(=O)CCc1nnc2ccc(NCc3ccccc3Cl)nn12 (centres undefined) | – | inconclusive: 10 µM [inhibitor, partial curve] |
| C/C(=N\Nc1ccc(F)cc1F)c1cccs1 | – | inconclusive: 14.1 µM [inhibitor, partial curve] |
| CCN(CC)S(=O)(=O)c1ccc(NC(=O)COC(=O)c2ccc(-n3nc(C)cc3C)cc2)cc1 | – | inconclusive: 2.82 µM [inhibitor, partial curve] |
| c1ccc(CSc2nnc(Cc3ccccc3)o2)cc1 | – | inconclusive: 15.8 µM [inhibitor, partial curve] |
| Cc1ccccc1S(=O)(=O)Oc1ccc2ccc(O)cc2c1 | – | inconclusive: 35.5 µM [inhibitor, partial curve] |
| CCN1C(=NCCc2cccs2)N[C@@H](CCc2ccccc2)[C@H](C(=O)NCCc2cccs2)[C@H]1C | – | inconclusive: 17.8 µM [inhibitor, partial curve] |
| COc1ccc(C(=O)NCC(=O)N/N=C/c2cccc(OC(=O)c3ccco3)c2)cc1OC | – | inconclusive: 25.1 µM [inhibitor, partial curve] |
| Cc1cc(C(=O)N/N=C2\CC(=O)c3ccccc32)c(C)n1-c1ccccc1 | – | inconclusive: 14.1 µM [inhibitor, partial curve] |
| CC1Sc2ccc(S(=O)(=O)CCC(=O)NC3CCCC(C)C3C)cc2NC1=O (centres undefined) | inactive: -11.8% | – |
| CCc1ccc(NC(=O)C2CCCN(S(=O)(=O)c3cccc4cccnc34)C2)cc1 (centres undefined) | inactive: -23.1% | – |
| CCCCOC(=O)CSc1nc2c(cc1C#N)C(=O)CC(C)(C)C2 | – | inconclusive: 39.8 µM [inhibitor, single point] |
| CN(Cc1ccccc1)c1ccc(C(CC(N)=O)NC(=O)Cc2ccc(Br)cc2)cc1[N+](=O)[O-] (centres undefined) | – | inconclusive: 28.2 µM [inhibitor, single point] |
| COc1cc(NC(=O)Cn2cnc(S(=O)(=O)N3CCOCC3)c2)cc(OC)c1OC | inactive: -1.97% | – |
| COc1ccc2oc(=O)c(C(=O)Nc3cccc(C(C)=O)c3)cc2c1 | inactive: -4.28% | – |
| COC(=O)c1ccc(CNC(=O)c2nc(Cn3nc(C)c(Br)c3C)no2)cc1 | – | inconclusive: 31.6 µM [inhibitor, partial curve] |
| CCc1nc2ccc(C(=O)N3CCN(c4cccc(OC)c4)CC3)cc2nc1CC | – | inconclusive: 35.5 µM [inhibitor, partial curve] |

| SMILES | activity change, negative = displacement | Potency |
| --- | --- | --- |
| Cc1onc(-c2c(F)cccc2Cl)c1C(=O)OCN1C(=O)c2ccccc2C1=O | – | inconclusive: 25.1 µM [inhibitor, partial curve] |
| CCOc1c2ccc(C(=O)NCc3ccc4c(c3)OCO4)cc2nn1CCOC | – | inconclusive: 0.794 µM [inhibitor, full curve] |
| Cc1ccc(C)c(-c2ccc(=O)n(Cc3ccc(F)cc3Cl)n2)c1 | – | inconclusive: 39.8 µM [inhibitor, single point] |
| Cc1noc(NS(=O)(=O)c2ccc(NC(=O)c3ccoc3C)cc2)c1C | inactive: -11% | – |
| C/C(=N\O)C(=O)OC1CC(C)CCC1C(C)C (centres undefined) | – | inconclusive: 17.8 µM [inhibitor, partial curve] |
| CC(C)=CCCC1=CCC2C(=O)NNC(=O)C2C1 (centres undefined) | – | inconclusive: 39.8 µM [inhibitor, single point] |
| Cc1ccc2oc(=O)c3cnn(CC(=O)N4CCN(c5cccc(C(F)(F)F)c5)CC4)c3c2c1 | inactive: -5.8% | – |
| CCCCOc1ccc(C(=O)Nc2ccc3c(c2)OCO3)cc1 | inactive: -3.18% | – |
| Cc1cc(C)c(C)c(S(=O)(=O)N[C@@H](C)C(=O)OCc2cc(=O)n3cc(Br)ccc3n2)c1C | – | inconclusive: 17.8 µM [inhibitor, partial curve] |
| CC(NC(=O)CSc1nnc(-c2cc3cc(Cl)ccc3o2)n1C)c1ccccc1 (centres undefined) | – | inconclusive: 0.794 µM [inhibitor, partial curve, poor fit] |
| CCCN1CCc2nc(SCC(=O)Nc3ccc(C)c(Cl)c3)[nH]c(=O)c2C1 | – | inconclusive: 794 nM [inhibitor, full curve, poor fit] and inconclusive: 35.5 µM [inhibitor, partial curve] |
| CC1=CCC2C(=O)N(c3cccc(C(=O)Nc4ccccc4Cl)c3)C(=O)C2C1 (centres undefined) | – | inconclusive: 20 µM [inhibitor, partial curve] |
| Cc1cc(NCCCN2CCOCC2)n2c(nc3ccccc32)c1C#N | inactive: 748% | – |
| O=c1[nH]c2ccccc2cc1CN(Cc1cccnc1)S(=O)(=O)c1ccc([N+](=O)[O-])cc1 | – | inconclusive: 14.1 µM [inhibitor, partial curve] |
| O=C(CSC1=NCCS1)N1CCc2ccccc21 | – | inconclusive: 31.6 µM [inhibitor, partial curve] |
| COc1ccc2c(c1)C(C)CC(C)(C)N2C(=O)CSc1ncn[nH]1 (centres undefined) | inactive: -22% | – |
| O=C(/C=C1\C(=O)Nc2ccccc21)/C=C1\C(=O)Nc2ccccc21 | inactive: -19.7% | – |
| COc1ccc(C(=O)NN(C)c2nc(-c3ccccc3)nnc2C(F)(F)F)cc1 | – | inconclusive: 15.8 µM [inhibitor, partial curve] |
| Cc1ccccc1-n1cnc2cc(NCc3cccs3)ccc21 | – | inconclusive: 28.2 µM [inhibitor, partial curve] |
| CC(C)(C)OC(=O)COc1cc(OCC(=O)OC(C)(C)C)c2c(=O)cc(-c3ccccc3)oc2c1 | – | inconclusive: 4.47 µM [inhibitor, full curve] |
| O=C(NCc1ccc(Cl)cc1)C(=O)NCC(c1cccnc1)N1CCN(c2ccc(F)cc2)CC1 (centres undefined) | inactive: -8.19% | – |
| O=C(Oc1ccc(Cl)cc1)c1ccc(COC(=O)c2cnccn2)cc1 | – | inconclusive: 35.5 µM [inhibitor, partial curve] |
| CCN(CC)C(=O)c1cc(S(=O)(=O)N2CCCCC2)c[nH]1 | inactive: -10.2% | – |

| SMILES | activity change, negative = displacement | Potency |
| --- | --- | --- |
| COc1ccccc1Nc1nc2cc(C)ccc2cc1C#N | inactive: -7.11% | – |
| CCOC(=O)CCCCC(=O)c1[nH]c(=O)[nH]c1CSCCO | inactive: -6.62% | – |
| O=C(Nc1cccc(Br)c1)c1ccn[nH]1 | – | inconclusive: 25.1 µM [inhibitor, partial curve] |
| O=c1c2ccccc2sc2ccc(Cl)cc12 | inactive: 23.4% | – |
| Cc1ccc(NC(=O)CN2CCCCCC2)c(Br)c1 | – | inconclusive: 39.8 µM [inhibitor, partial curve] |
| Cc1ccc(-c2cc(C(F)(F)F)c(C#N)c(SCCC#N)n2)o1 | inactive: -13.3% | – |
| Cc1ccc(C(C)C)c(OCC(=O)Nc2cccc(-c3nc4ncccc4o3)c2)c1 | – | inconclusive: 11.2 µM [inhibitor, partial curve] |
| CCc1c(C(=O)NCc2ccccc2Cl)[nH]c(C)c1C(C)=O | – | inconclusive: 12.6 µM [inhibitor, partial curve] |
| COc1cccc(Oc2nc3c(c(=O)n(Cc4ccccc4Cl)c(=O)n3C)n2C)c1 | – | inconclusive: 3.55 µM [inhibitor, full curve, poor fit] |
| O=C(c1cccs1)N1CCc2ccccc21 | – | inconclusive: 28.2 µM [inhibitor, single point] |
| O=C(NC1CCCCC1)c1cccs1 | – | active: 12.6 µM |
| COc1ccc(NCC(=O)N/N=C/C=C/c2ccccc2[N+](=O)[O-])cc1 | – | inconclusive: 20 µM [inhibitor, partial curve] |
| CC(C)c1ccc(NC2CCCN(C(=O)c3cscn3)C2)cc1 (centres undefined) | – | inconclusive: 15.8 µM [inhibitor, partial curve] |
| CCOc1ccc(OC(=O)NC(c2ccccc2)C(Cl)(Cl)Cl)cc1 (centres undefined) | – | inconclusive: 22.4 µM [inhibitor, partial curve] |
| N#Cc1ccc(OCC(=O)N/N=C/C2CC=CCC2)cc1 (centres undefined) | – | inconclusive: 28.2 µM [inhibitor, single point] |
| CCNCCNC(=O)c1c(O)c2cccc3c2n(c1=O)CCC3 | inactive: -13.1% | – |
| Nc1ccc(S(=O)(=O)c2ccc(Cl)cc2)cc1 | – | inconclusive: 50.1 µM [inhibitor, single point] |
| COc1ccc(C(=O)Nc2nnc(SCc3cc(=O)n4cc(Cl)ccc4n3)s2)cc1 | inactive: -12.2% | – |
| CCOC(=O)c1[nH]c(C)c(C(=O)c2ccc(C)cc2)c1C | – | inconclusive: 35.5 µM [inhibitor, partial curve] |
| COC(=O)c1cccn(CC(=O)c2ccc(Cl)cc2Cl)c1=O | inactive: -14% | – |
| O=C(c1ccc(S(=O)(=O)N2CCCC2)cc1)N1CCCc2ccccc21 | – | inconclusive: 28.2 µM [inhibitor, partial curve] |
| COC(=O)CSc1nc(C2CC2)cc(C(F)(F)F)c1C#N | – | inconclusive: 31.6 µM [inhibitor, partial curve] |
| Cc1cccc(OCC(=O)Nc2ccc(N3CCCC3)cc2)c1C | – | inconclusive: 35.5 µM [inhibitor, partial curve] |
